Test results published in the supplement of paper PMC12217912.
This is one part of the list. The full chains were built here from the parent and the listed change. Values near 0.05 are background.

B1: TEV protease; numbered along this chain (parent)
chain: MGESLFKGPRDYNPISSSICHLTNESDGHTTSLYGIGFGPFIITNKHLFRRNNGTLVVQSLHGVFKVKDTTTLQQHLVDGRDMIIIRMPKDFPPFPQKLKFREPQREERICLVTTNFQTKSMSSMVSDTSCTFPSGDGIFWKHWIQTKDGQCGSPLVSTRDGFIVGIHSASNFTNTNNYFTSVPKNFMELLTNQEAQQWVSGWRLNADSVLWGGHKVFMVKPEEPFQPVKEATQL

Variants of: B1
Experiment: raw area under fraction-flipped curve 0-4 h after induction (AUC4h, not background-subtracted), DNA-recorder readout of cleavage of the substrate (dimensionless); higher = more cleavage of the substrate by the protease variant
Details: temperature: 34 °C; time window: 0-4 h after rhamnose induction
Procedure: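 In vivo DNA recorder in E. coli TOP10(DE3) ΔrhaA at 34 °C. Each TEVp single-site mutant (parent TEVp 0) is paired with a single-site variant of the 7-mer TEVs (canonical ENLYFQ|S). The substrate sits between flexible linkers in a Bxb1-sfGFP-TEVs-SsrA fusion, so cleavage stabilises Bxb1 and speeds flipping of a recombination array, read by NGS. The value is the raw area under the fraction-flipped curve over 0-4 h after rhamnose induction (AUC4h), with ≥20 reads per time point. It is not background-subtracted; inactive controls average about 0.047.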
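Note: Bxb1 expression induced with 0.2% (w/v) L-rhamnose at OD600 near 0.5, cultures sampled hourly, flipped fraction per protease–substrate barcode pair counted by paired-end Illumina sequencing.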

Variant	area with substrate ENLYFQC	area with substrate ENLYFQD	area with substrate ENLYFQE	area with substrate ENLYFQF	area with substrate ENLYFQI	area with substrate ENLYFQL	area with substrate ENLYFQM	area with substrate ENLYFQP	area with substrate ENLYFQR	area with substrate ENLYFQS	area with substrate ENLYFQT	area with substrate ENLYFQW	area with substrate ENLYFQY	area with substrate ENLYFQG	area with substrate ENLYFQK	area with substrate ENLYFQN	area with substrate ENLYFQV	area with substrate ENLYFQH	area with substrate ENLYFQQ
S4H	0.127	0.0748	0.0581	0.0834	0.044	0.0544	0.116	0.0593	0.0267	0.124	0.0471	0.0901	0.0834						
P9F	0.0637	0.0552		0.0718	0.0615	0.059	0.0826	0.0689	0.0753	0.0651	0.0606		0.0304	0.0777	0.0385	0.0585			
N13I	0.0936	0.0723			0.064	0.0676	0.0869	0.0608	0.0628	0.0922	0.0609	0.0299	0.0676		0.0621	0.0709	0.0619		
P14T	0.122	0.0748	0.061		0.0568	0.0677	0.0937	0.065	0.0474	0.0986	0.0686	0.0614	0.0949	0.0921	0.0481	0.0807	0.0534	0.0781	
P14Y	0.0954	0.0691		0.0538	0.0588	0.0662	0.0764		0.0664	0.0882	0.0689	0.0513			0.0615	0.0725	0.0594	0.0656	
I15D	0.0862	0.0613	0.0332		0.0428	0.0494	0.0587	0.052	0.0478	0.0751	0.0425	0.0633		0.076	0.0507	0.0321	0.0535	0.0342	
S17A	0.117			0.0983	0.055	0.0249	0.0968	0.0563	0.0622	0.109	0.0569	0.0703		0.102	0.0615	0.0894			0.0865
S18A	0.118			0.0794		0.0584	0.113		0.0666	0.11	0.0688	0.0736	0.0825	0.057		0.138	0.0597		
L22I	0.104	0.0531			0.0432	0.0552	0.0792	0.0725	0.065	0.107	0.0764	0.0738	0.0834	0.0849	0.0667	0.072	0.0637	0.0695	
T23C	0.105	0.0827	0.0693	0.064	0.0497	0.0529	0.086	0.0557	0.0506	0.1	0.0681		0.071	0.088	0.0544		0.0489	0.0749	0.0629
T23L	0.101	0.0489				0.0557	0.0691	0.0466	0.0558	0.103	0.0615	0.0674	0.0865	0.0905	0.0555	0.0877	0.0615	0.0814	0.06
T23N	0.0873	0.0721		0.0947	0.06	0.0542			0.0497	0.0937	0.0608	0.0706		0.0734	0.0572	0.0762		0.0754	0.0567
